Test results as given in ChEMBL document CHEMBL4888484, “Replenishing the malaria drug discovery pipeline: Screening and hit evaluation of the MMV Hit Generation Library 1 (HGL1) against asexual blood stage Plasmodium falciparum ,using a nano luciferase reporter read-out” (2022).
About 540 (0.36%) of roughly 150,000 compounds showed an effect of 50% or more. The list shows a part of the results.

The compounds below were run on Plasmodium falciparum (assay: Primary screen in NF54 nanoGlo assay, in single point, at 2uM, 72h; a lower Z score goes with more inhibition). Conditions: timepoint 72 hour.
Type: functional, Erythrocyte

Structure (SMILES) | % Inhibition | Z score
Cc1cc(S(=O)(=O)N2CCc3oncc3C2)ccc1F | -4% | 0.65
COC[C@H]1[C@H](Nc2ncc(F)c(N(C)C)n2)[C@H]2CCO[C@H]21 | -4% | 0.6
CN(C(=O)NCc1ccco1)[C@@H](CO)C(C)(C)C | -22% | 2.5
COC1([C@H](C)NCc2scnc2C)CCCC1 | -10% | 1.18
CCCc1nc(C(=O)N2CC[C@@H](CO)[C@@H](O)C2)cs1 | -1% | 0.16
CCn1cc(CN(C)Cc2ccccc2)ccc1=O | -16% | 1.74
COc1ccccc1[C@H](NC(=O)Nc1cnn(C)c1)c1ccccn1 | -11% | 1.33
COc1cccc(C2(F)CCN(C(=O)[C@H](CO)NC(=O)C(C)C)CC2)c1 | -38% | 4.51
CCCCCNC(=O)C[C@H](c1cccc(OCc2ccccc2)c1)c1c[nH]c2ccccc12 | 0% | -0.01
Cc1cnc(CN(C)Cc2ccnc(C)c2)cn1 | -13% | 2.38
Cc1n[nH]c(C)c1-c1ccc(CS(C)(=O)=O)cn1 | -7% | 0.61
CNC(=O)NC(=O)CN(Cc1cccnc1)C[C@H]1CCCO1 | 11% | -1.34
O=S1(=O)CCCN1Cc1cc(Cl)c2c(c1)OCCO2 | 29% | -3.9
CN(CCCCN1CCOCC1)C(=O)c1cnc(N)s1 | 1% | -0.15
CCn1cnnc1CNC(=O)N1C2CCC1CC(O)(Cc1ccc(F)cc1F)C2 (stereo unspecified) | -9% | 1.63
CCC(=O)N(CC(=O)N1CCc2sccc2C1COc1ccc(C(C)C)cc1)CC1CCCO1 (stereo unspecified) | 1% | -0.23
Cc1cc(CN(C)S(=O)(=O)Cc2ccccc2)no1 | -10% | 1.68
O=C(NCCc1nccs1)c1ncn[nH]1 | -1% | 0.11
CCOc1ncccc1C(=O)NCc1nc(-c2ccc[nH]c2=O)no1 | -12% | 1.99
CC(c1ccccc1)n1cc(NC(=O)[C@H]2CCN(C)[C@@H](C)C2)cn1 (stereo partly specified) | -6% | 1.13
CO[C@H](c1ccc2c(c1)CN(C(=O)c1scc3c1OCCO3)CCO2)C1CCCCC1 | -7% | 1.32
COc1ccc(OC)c(-c2cc(C(=O)NCC[C@H](O)c3cccn3C)n(C)n2)c1 | 5% | -0.56

Structure (SMILES) | % Inhibition | Z score
O=C(CCc1ccsc1)Nc1ccc2c(c1)OC1(CCCCC1)O2 | -8% | 0.9
N#Cc1ccc(-n2cccc2-c2c(C#N)c(N)nc3c2CNCC3)cc1 | -16% | 1.63
Nc1nc(NCc2ccc(O)cc2)cc(C2CC(O)C2)n1 (stereo unspecified) | 2% | -0.38
Cc1cn2cc(C(=O)N3CC=C(c4ccnn4C)CC3)sc2n1 | -2% | 0.27
COc1c(C)cc(C(=O)N2CCC3(CC2)NCCNC3=O)cc1C | -11% | 1.63
O=C1N(CN2CCN(c3ccccc3F)CC2)c2ccccc2C12OCCCCO2 | -4% | 0.56
Cc1c(CN[C@H]2CCCc3c2cnn3-c2ccccn2)[nH]c2c(Cl)cccc12 | 15% | -1.94
CCc1nc(CN2C(=O)COc3cc(S(=O)(=O)Nc4ccc(C#N)cc4)c(C)cc32)no1 | 0% | -0.03
CCc1ncc(-c2cc(C(=O)N3CCC(C)(C)C3)c3cc(C)ccc3n2)cn1 | 10% | -1.32
CC(C)n1cc(NC(=O)N2CCN(CC(F)(F)F)C[C@H](C)C2)cn1 | -1% | 0.13
Cc1cc(NC(=O)NCC[C@H]2CCCO2)n(-c2ccc(C(F)(F)F)cn2)n1 | 4% | -0.8
C=CCN(Cc1cnc2c(-c3ccccc3)cnn2c1)[C@H]1CCS(=O)(=O)C1 | -9% | 1.31
C[N+]12CCCCC1C(OC(=O)C1(c3ccccc3)CCCC1)CCC2 (stereo unspecified) | 63% | -6.6
CN1C[C@@H](NC(=O)NCc2ccc(OC(F)F)cc2F)CC1=O | 1% | -0.09
O=C(O)c1cccc(CN2CC[C@H](c3ccccc3)[C@H](CO)C2)c1 | 16% | -1.98
C[C@@]1(C(=O)NC2CCCCCC2)Cn2nc(-c3ccco3)cc2C(=O)N1Cc1cccc(Cl)c1 | -6% | 1.07
CO[C@H]1CS(=O)(=O)C[C@@H]1NC1Cc2ccccc2C1 | -8% | 1.48
CN(CCn1ccc2ccccc21)Cc1cnc(N)nc1 | -12% | 2.09
Cn1ncc2c(N)nc(N3CCC(c4c[nH]c5ccccc45)CC3)nc21 | -7% | 0.73
Cn1cc2ncn(Cc3ccccn3)c(=O)c2n1 | 6% | -1.19
c1ccc(OCCN2CCN(c3ncccn3)CC2)cc1 | -3% | 0.27
